According to PubChem BioAssay AID540317 (National Center for Advancing Translational Sciences (NCATS), 2011):
The whole screen tested about 390,000 compounds, of which about 2,200 (0.56%) were called active. The shares of active, inactive and inconclusive entries below differ from those in the screen. Calls follow the shape of the dose curve; as a rule, active = well fitted inhibition curve with a large enough effect; inconclusive = small, poorly fitted or top-dose-only effect; inactive = no such curve, though single readings can be large or run the other way. Potencies beside an inconclusive call are fits to weak or partial responses and may not hold up.

What follows are compounds tested against Chromobox protein homolog 1 (Homo sapiens) (UniProt P83916) (assay: HTS for Inhibitors of HP1-beta Chromodomain Interactions with Methylated Histone Tails). Settings: AlphaScreen HP1-beta / biotin-H3K9me3 peptide binding; series mostly up to 114 µM; activity change, negative = inhibition: at the top concentration.
In short: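 HP1-beta protein (50 nM final) preincubated 30 min at room temperature with biotinylated H3(1-18)K9me3 peptide (50 nM) in PBS pH 7.4, 0.01% Tween-20, then compound added for 30 min. AlphaScreen streptavidin donor/nickel chelate acceptor beads (10 ug/mL final), 30 min dark, luminescence read.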
Also: nearly all actives have a fitted effect of over 70% in size.
Potency is read from the fitted curve at half-maximal effect; tags tell the direction and shape of the fitted curve.

Sequence of UniProt P83916 (P83916 whole entry, looked up): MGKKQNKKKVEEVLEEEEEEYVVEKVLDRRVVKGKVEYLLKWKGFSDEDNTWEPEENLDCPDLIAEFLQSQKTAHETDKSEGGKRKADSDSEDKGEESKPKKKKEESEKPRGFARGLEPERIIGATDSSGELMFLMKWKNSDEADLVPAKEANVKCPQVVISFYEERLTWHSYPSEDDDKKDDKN

Structure (SMILES) | activity change, negative = inhibition | Potency
CCc1ccc(NC(=O)c2cc(-c3ccc(OC)cc3)on2)cc1 | inactive: 24.6% | 
N#Cc1cccc(N=c2ssnc2Cl)c1 |  | inconclusive: 2.82 µM [inhibitor, full curve, poor fit]
CCN(CC(=O)NC(=O)NCc1ccccc1)Cc1ccccc1 | inactive: 37.6% | 
Cc1ccc2nc(-c3ccc(N4C(=NC(=O)CCC(=O)O)SC5CS(=O)(=O)CC54)cc3)sc2c1 (stereo not given) |  | inconclusive: 44.7 µM [inhibitor, partial curve, poor fit]
COc1cccc(-c2sc3cc(OC)c(OC)cc3c2-c2ccc(OCCN3CCCCC3)cc2)c1 |  | inconclusive: 39.8 µM [inhibitor, partial curve]
Cc1ccccc1N1CCN(C(=O)c2ccccc2NC(=O)c2ccccc2C(=O)O)CC1 |  | inconclusive: 39.8 µM [inhibitor, single point]
CN(C)C(CNC(=O)c1cnc(Cl)c(Cl)c1)c1ccccc1 (stereo not given) |  | inconclusive: 25.1 µM [inhibitor, partial curve]
Cc1ccc(Cl)cc1NC(=O)CNCC(c1ccccc1)N(C)C (stereo not given) |  | inconclusive: 14.1 µM [inhibitor, partial curve]
CCN(CCCCCN(C)C)Cc1cc2ccccc2o1 |  | inconclusive: 89.1 µM [inhibitor, single point]
C=CCc1ccc(OC)c(OC)c1 | inactive: 13.8% | 
Cc1ccc(-c2nnn(CC(=O)NCC3COCCO3)n2)o1 (stereo not given) |  | inconclusive: 39.8 µM [inhibitor, single point]
NS(=O)(=O)c1ccc(O)c(NC(=O)c2ccc([N+](=O)[O-])o2)c1 |  | active: 44.7 µM
CCOC(=O)c1c(C)[nH]c(C(=O)COC(=O)/C=C/c2cccc(OC)c2OC)c1C | inactive: 13.6% | 
O=C(CSc1nccn1Cc1ccc(Cl)cc1)Nc1nc2ccccc2s1 |  | inconclusive: 22.4 µM [inhibitor, single point]
O=C1CCC(=O)N1CNc1ccc(Oc2ccccc2)cc1 | inactive: 1.83% | 
CC(=O)NC(CC(=O)OCC(=O)c1ccc(NC(=O)CC(C)C)cc1)c1ccccc1 (stereo not given) |  | inconclusive: 70.8 µM [inhibitor, partial curve, poor fit]
COc1cccc(NC(=O)CNCc2ccccc2)c1 | inactive: 43.1% | 
CC(C)NC(=O)C1CCN(c2nc3ccccc3nc2C(F)(F)F)CC1 | inactive: 18.3% | 
O=C(NCc1ccccc1)c1ccc(CSc2nc3cccnc3n2Cc2ccccc2F)cc1 |  | inconclusive: 12.6 µM [inhibitor, full curve, poor fit]
CCOc1ccccc1N1CCN(Cc2ccc(Br)s2)CC1 |  | inconclusive: 79.4 µM [inhibitor, partial curve]
